Z-score data for 73 compounds are collected here from PubChem BioAssay AID488969 (Vanderbilt High Throughput Screening Facility, 2010).

The full ranking holds about 110,000 compounds; the median of “z-score” is about -0.1, and the highest 2% start at about 2. Some of the results follow.

The test concerns the target Metabotropic glutamate receptor 8 (Rattus norvegicus) (UniProt P70579). The experiment in a line: rat mGluR8 modulators via GIRK flux, primary screen, cell-based, thallium flux, HTS (AID 488969). Particulars: HEK293 rat mGluR8, GIRK (G protein-gated inwardly rectifying potassium channel) thallium flux, FluoZin2; at 10 µM; stronger effect = higher value; submaximal glutamate (EC20) added with thallium.
Chain of UniProt P70579 (P70579 whole entry, looked up): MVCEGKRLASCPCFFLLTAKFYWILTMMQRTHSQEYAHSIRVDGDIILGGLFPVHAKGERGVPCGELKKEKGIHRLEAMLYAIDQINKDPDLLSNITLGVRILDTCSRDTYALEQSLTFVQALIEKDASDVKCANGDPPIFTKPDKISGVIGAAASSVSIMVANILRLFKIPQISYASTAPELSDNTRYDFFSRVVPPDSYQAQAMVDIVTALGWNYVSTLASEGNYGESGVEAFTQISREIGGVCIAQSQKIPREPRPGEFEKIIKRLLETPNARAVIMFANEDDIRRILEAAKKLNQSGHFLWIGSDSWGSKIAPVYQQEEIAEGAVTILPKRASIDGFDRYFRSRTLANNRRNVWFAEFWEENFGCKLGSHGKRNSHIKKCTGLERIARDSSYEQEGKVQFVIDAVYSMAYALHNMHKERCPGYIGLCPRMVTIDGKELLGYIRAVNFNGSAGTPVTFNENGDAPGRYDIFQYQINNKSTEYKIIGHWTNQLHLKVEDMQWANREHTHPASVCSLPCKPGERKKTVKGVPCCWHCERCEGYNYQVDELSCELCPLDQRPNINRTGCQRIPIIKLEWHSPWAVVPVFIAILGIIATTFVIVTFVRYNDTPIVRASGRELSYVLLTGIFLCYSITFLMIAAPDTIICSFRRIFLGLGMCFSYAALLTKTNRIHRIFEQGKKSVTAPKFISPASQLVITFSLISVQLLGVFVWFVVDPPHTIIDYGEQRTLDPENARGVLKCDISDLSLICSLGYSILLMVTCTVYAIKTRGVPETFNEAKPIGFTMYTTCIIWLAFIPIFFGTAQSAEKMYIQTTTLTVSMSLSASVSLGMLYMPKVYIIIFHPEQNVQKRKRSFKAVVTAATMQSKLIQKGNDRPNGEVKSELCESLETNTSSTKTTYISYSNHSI
`C#CCOC(=O)c1csc2nnsc12` gave a z-score of -0.103. The result for `Cc1cccc(NC(=S)N(CCN(C)C)C(C)c2ccccn2)c1` (stereo not drawn) reads 0.0557. The result for `COc1ccc(Cl)cc1NC(=O)N1CCN(S(C)(=O)=O)CC1` reads 0.29. For `CCN(CC)c1ccc(NC(=O)COC(=O)CCC(=O)c2ccc(F)cc2)cc1` the value was -0.0202.

In the case of `COc1ccc(OCCCn2c(=O)oc3ccccc32)cc1`, the z-score turned out to be 0.326. The result for `Cc1cccc(NC(=O)/C(=C\c2ccco2)NC(=O)c2cccs2)c1` reads -0.204; that for `Cc1ccccc1Nc1nc(N)nc(CSc2nnc(-c3ccccc3)n2C)n1`, 0.307; that for `CCN(CC)S(=O)(=O)c1cccc(C(=O)NC(Cc2c[nH]c3ccccc23)c2nnc3n2CCC3)c1` (stereo not drawn), -0.455.

Turning to `O=C(NCCN1CCOCC1)c1ccc(CS(=O)(=O)Cc2ccccc2F)o1`, the z-score was -0.141.

Take `O=C(COC(=O)c1ccccn1)Nc1cccc(Cl)c1Cl`: the z-score turned out to be 0.0326. For `CC(C)(C)c1ccc(/C=C/C(=O)N2CCN(c3ncccn3)CC2)cc1` the value was -0.394. For `O=c1c2cnn(-c3ccccc3)c2nnn1Cc1ccccn1` the value was -0.283; for `C=CCn1c(C)c(C(C)=O)c(N2CCCC2)nc1=S`, 0.317; for `CCn1c(C(c2ccccc2)c2ccccc2)n[nH]c1=S`, -0.484. Regarding `CCCCCSc1nncc(=O)[nH]1`, the z-score is -0.281. For `Cc1ccc(S(=O)(=O)N2CCN(C(=O)CSc3nc4ccccc4c(=O)[nH]3)CC2)c(C)c1` the value was -0.321; for `CC1(O)C(=O)c2ccccc2N(c2ccccc2)C1=O` (stereo not drawn), -0.0727; for `Cn1c(=N)n(CC(=O)c2cccs2)c2ccccc21`, -0.0567. The result for `CN1C(=O)C(C(=O)NC(C)(C)C)C2c3ccccc3OC13CCCCC23` (stereo not drawn) reads 0.209. The result for `O=S(=O)(NCCc1ccncc1)c1ccc(Br)cc1` reads -0.0433. The compound `CCc1ccc2nc(SCC(=O)N3CC(=O)Nc4ccccc43)c(C#N)cc2c1` returned a z-score of 1.16. `COc1ccc(C(=O)c2ccc(OC)c3cccc(O)c23)cc1OC` had a z-score of -0.286. As to `CCOc1ccc(C2N(c3cc(C)on3)C(=O)C3CCCN32)cc1OC` (stereo not drawn), the z-score is -0.404. For `CCOC(=O)c1cnn(-c2cc(C)nc3c(-c4ccc(Cl)cc4)c(C)nn23)c1N` the value was -0.0786; for `CC(C)c1nccn1CCC(=O)O`, 0.262. The result for `Cc1ccc(N(CC(=O)NCc2ccccc2Cl)S(=O)(=O)c2cccs2)cc1` reads -0.232. The result for `Cc1nnc(SCc2ccccc2C#N)n1-c1ccccc1` reads 1.19.

For the compound `Cc1ccc(-c2noc(C3CCN(C(=O)Nc4ccc(C#N)cc4)CC3)n2)o1`, the z-score was -0.0373. For `COc1ccc(NC(=O)c2ccccc2NC(=O)CSc2ccccc2)cc1` the value was -0.249; for `N#CC1=C2SCC(O)(c3ccccc3)N2C(=O)CC1c1cccs1` (stereo not drawn), -0.336. The result for `CC(=O)Nc1cccc(OCC(=O)NC(C)C(C)C)c1` (stereo not drawn) reads 0.366; that for `COC(=O)CSC(C(=O)Nc1ccc(C)c(C)c1)c1ccccc1` (stereo not drawn), -0.0715; that for `Cc1nnc(SCC(=O)NN2C(=O)NC3(CCCCC3)C2=O)s1`, -0.0833.

Consider `C=CCNC(=O)c1cc2c(=O)n3cc(C)ccc3nc2nc1NCC1CCCO1` (stereo not drawn), for which the z-score amounted to 0.535. The result for `CC(CNC(=O)C1CCCCC1)NC(=O)C1CCCCC1` (stereo not drawn) reads -0.0103. In turn, `CC(Oc1ccc(Cl)cc1Cl)C(=O)NCCCn1ccnc1` (stereo not drawn) had a z-score of 0.308. The result for `CCOC(=O)c1c[nH]c(=O)c(Br)c1O` reads -0.121. For `CCOC(=O)c1ccccc1NC(=O)CSc1nnc(Cc2cccn2C)n1-c1ccc(C)cc1` the value was -1.53; for `Nc1nc(CSCCO)nc(Nc2ccc(F)cc2)n1`, 0.255.

As to `Cc1cc(C)n(CCC(=O)N/N=C/c2ccc(O)cc2)n1`, the z-score was -0.284.

Compound `Cn1nnnc1SCc1ccccc1[N+](=O)[O-]` returned a z-score of -0.65. For `CC1CCCCN1C(=O)CSc1nc(-c2ccccc2)cc(=O)[nH]1` (stereo not drawn) the value was -0.155. For `Cc1ccc2nc(C3CCCN(C(=S)Nc4cccc(C)c4C)C3)[nH]c2c1` (stereo not drawn) the value was 0.0859; for `COc1ccc(C(C(=O)NC(C)(C)C)N(CC2CCCO2)C(=O)CCC(=O)Nc2cc(C)on2)cc1` (stereo not drawn), -0.202.

Take `CC(=O)Nc1ccc2nc(N)sc2c1`: the z-score was determined as 0.197. The compound `COc1ccccc1NC(=O)CCN1CCCCCC1` showed a z-score of -0.247.

`Cc1cc(C(=O)NNC(=S)NCC2CCCO2)cs1` (stereo not drawn) registered a z-score of 0.555. Take `CCOc1ccc(N2CC(C(=O)OCC(=O)NCc3ccccc3)CC2=O)cc1` (stereo not drawn): the z-score was -0.5. `Brc1cccc(CN2CCCCCCC2)c1` had a z-score of 0.167. The result for `CCN(CC)S(=O)(=O)c1ccc(OC)c(NC(=O)CSc2cc(Cl)ccc2Cl)c1` reads 0.0224; that for `COc1ccc(N(CC(=O)NCc2ccccc2)S(=O)(=O)c2c(C)noc2C)cc1`, 0.353. The compound `CC12CCC(c3c(C(=O)O)nn(-c4ccc(F)cc4)c31)C2(C)C` (stereo not drawn) showed a z-score of -0.451.

As for `COc1ccc(C(=O)NC2CCN(C(=S)Nc3cccc(C)c3C)CC2)cc1`, the z-score was found to be 0.501. For `Cc1ccc(-c2nnc(SCC(=O)NNC(=O)COc3cccc4ccccc34)n2C)cc1` the value was -0.0871; for `CCOc1ccc(-c2cc3nc(C4CCN(C(=O)OC(C)(C)C)CC4)c(C(=O)O)cn3n2)cc1`, -0.472.

`CCOC(=S)SCC(=O)Nc1nc(-c2ccccc2)cs1` returned a z-score of 0.0871. With `CCOC(=O)C1CCN(C(=O)N2CCOCC2)CC1`, the z-score was -0.296. In turn, `COc1ccc(-c2nc(C#N)c(NCc3ccc(F)cc3)o2)cc1OC` registered a z-score of -1.26. The result for `COc1ccc([N+](=O)[O-])cc1NC(=O)CSc1nccc(C)n1` reads -0.037; that for `COc1ccc(C)cc1-n1nnnc1SCC(=O)c1ccc2c(c1)OCCO2`, 0.142; that for `O=C(/C(=N/N=C/c1ccc(O)c(O)c1O)c1ccccc1)c1ccccc1`, -0.216. In turn, `CN1CN(C)c2cccc3cccc1c23` gave a z-score of -0.472.

As to `COc1cc(CN2CCC(C(=O)N3CCCC(C)C3)CC2)cc(Br)c1O` (stereo not drawn), the z-score came out at 0.673. `Cc1ccc(/C=C/c2nnc(-c3cccc(C)c3)o2)cc1` came in with a z-score of -0.0561. For `CC(=O)c1nn(-c2cccc(Cl)c2)cc1C(=O)c1ccco1` the value was 0.0585. The result for `COc1ccc(C(=O)C(CN2CCOCC2)c2ccccc2)cc1` (stereo not drawn) reads 0.845; that for `CCc1cccc(CC)c1NC(=O)Cn1c(-c2ccccc2Cl)nc2ccccc21`, -0.297. For `Cc1ccc(NC(=O)c2ccc(S(=O)(=O)C(F)F)cc2)c(C)c1` the value was -0.657; for `COc1cc(NC2=CC(=O)CC(C)(C)C2)cc(OC)c1OC`, 0.32. In the case of `CC1(C)CC(c2nc(-c3ccc(Br)cc3)cs2)CCS1` (stereo not drawn), the z-score was 2.26.

`COc1ccc2nc(SCC(=O)/C(C#N)=C(\C)N)[nH]c2c1` came in with a z-score of -0.0634. For `CCN(CC(=O)NC1CCS(=O)(=O)C1)C(=O)C(c1ccccc1)c1ccccc1` (stereo not drawn) the value was -0.476; for `O=C(CCCN1C(=O)/C(=C/c2cccs2)SC1=S)NNC(=O)c1ccc(F)cc1`, 0.178.
